Experimental data as given in PubChem BioAssay AID686979 (National Center for Advancing Translational Sciences (NCATS), 2013).
Out of some 420,000 compounds screened, about 50,000 (12%) were called active. The inconclusive results got no clear call from the source; some entries with a clear call stand among them for comparison. Calls come from the whole dose curve; as a rule, active = well fitted inhibition curve with a large enough effect; inconclusive = small, poorly fitted or top-dose-only effect; inactive = flat fitted curve, though single readings scatter. Potencies of inconclusive entries are left out as doubtful fits.

Test: qHTS for Inhibitors of human tyrosyl-DNA phosphodiesterase 1 (TDP1): qHTS in cells in presence of CPT; note: nearly all actives have a fitted effect of over 55% in size
Conditions: chicken DT40 Tdp1-/-;hTDP1 cells + 20 nM CPT, ATP luminescence, 48 h; activity change, negative = growth inhibition: at 46.2 µM (top of the series) unless noted
Outline: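 Chicken DT40 Tdp1-/- cells complemented with human TDP1, 400 cells/well, exposed to compounds plus 20 nM camptothecin for at least 48 h at 37 C; viability read as ATP content by CellTiter-Glo luminescence.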
% is set by controls: 0 for no effect and ±100 for the full control effect; potency is the fitted concentration of half-maximal effect; tags give direction and shape of the fitted curve.

SMILES	Potency	activity change, negative = growth inhibition
COc1ccccc1C(=O)NCCn1cc(SCc2ccc(C)cc2)c2ccccc21	active: 23.1 µM	–
COc1ccc2[nH]c(C)c(C(=O)CN3CCN(C/C=C/c4ccccc4)CC3)c2c1	active: 18.4 µM	–
COc1ccc2[nH]c3c(c2c1)CCN1C(=O)C(CC(=O)NCCCn2ccnc2)C[C@H](C(=O)N(C(C)C)C(C)C)[C@@]31C (stereo not given in full)	inactive	–
CC(C)C(=O)Nc1c(-c2ccccc2Cl)c(=O)c2ccccc2n1C	inconclusive [inhibitor, partial curve, poor fit]	–
CCC1CCc2nc3sc(C(=O)Nc4ccc(C)cc4)c(N)c3cc2C1 (stereo not given)	active: 11.6 µM	–
COc1ccc(OCCCCc2c(C)n[nH]c2C)cc1	active: 23.1 µM	–
CCC(C(=O)NCCc1ccc(OC)cc1OC)n1nc(C)n2c(cc3occc32)c1=O (stereo not given)	inconclusive [inhibitor, partial curve, poor fit]	–
N=NC(=O)c1ccccc1Nc1c(O)[nH]c2ccccc12	active: 20.6 µM	–
CCN(c1ccccc1C)S(=O)(=O)c1ccc(N2CCCCS2(=O)=O)cc1	inactive	–
CC1CC(C)(C)NC(=S)N1CCC(=O)NCCc1ccc(Cl)cc1 (stereo not given)	inactive	–
O=[N+]([O-])c1cc2c(c(CSc3nnc(Nc4ccccc4)s3)c1)OCOC2	inactive	–
CC1CCCC(NC(=O)CN2C(=O)NC(c3ccccc3)(c3ccccc3)C2=O)C1C (stereo not given)	–	inconclusive: -35.1% [inhibitor]
C[C@]12C(=O)N(c3ccc(F)cc3)C(=O)N1[C@@H]1c3ccccc3OC[C@@H]1[C@H]2c1ccccc1	inconclusive [inhibitor, single point]	–
CCC/C=C/c1ccc(CN2C(CC(C)C)C(=O)N(Cc3cn(CCC4OCCCO4)nn3)CCS2(=O)=O)cc1 (stereo not given)	inconclusive [inhibitor, single point]	–
Cc1nc2c(-c3ccc(F)cc3)c(C)nn2c(C)c1CCC(=O)Nc1ccccc1F	inconclusive [inhibitor, partial curve]	–
COc1ccc(CCn2c(=N)c(C(=O)NC3CCCCC3)cc3c(=O)n4ccccc4nc32)cc1	active: 6.51 µM	–
Cn1c(=O)c2cc(NC(=O)NCCc3cccs3)ccc2n1C/C=C/c1ccccc1	inconclusive [inhibitor, single point]	–
CCc1ccccc1NS(=O)(=O)c1ccc2c(c1)CCN2C(=O)C1CC1	inconclusive [inhibitor, single point]	–
CCCCCNC(=O)C(C#N)c1nc2ccccc2nc1N1CCCC1 (stereo not given)	inactive	–
CCC1CC2(C)NC(=O)c3c(sc4c3CC(C)(C)OC4)N2C1=O (stereo not given)	inconclusive [inhibitor, partial curve]	–
O=C(NCC(F)(F)F)c1cc2c(c(-c3cccc(-c4ccccc4F)c3)n1)[C@H](CCO)N(C(=O)CC1CC1)C2	active: 16.4 µM	–
O=C(Nc1ccc(Cl)cc1)Nc1ccc(-c2cnco2)cc1	inconclusive [inhibitor, full curve]	–
CCN(CC(=O)NCc1cccs1)C(=O)Cc1ccc(Cl)c(Cl)c1	–	inconclusive: -36.9% [inhibitor]
CCOc1ccc(CCNC(=O)c2nn(-c3ccc(OC)c(Cl)c3)c(=O)c3c2c2ccccc2n3C)cc1OCC	inactive	–

SMILES	Potency	activity change, negative = growth inhibition
Brc1cccc(-c2nnc3sc(CN4CCCCC4)cn23)c1	inconclusive [inhibitor, single point]	–
N#Cc1ncc(C(F)(F)F)cc1Sc1ccccc1N	inconclusive [inhibitor, partial curve]	–
Cn1c(/C(C#N)=C(\O)c2ccc([N+](=O)[O-])cc2)nc2ccccc21	inconclusive [inhibitor, single point]	–
CC(C)OC(=O)c1cc(Cl)c(=O)n(Cc2ccc(Cl)cc2Cl)c1	inconclusive [inhibitor, single point]	–
COc1ccc2c(c1)C(=NN)c1cc(OC)ccc1-2	active: 16.4 µM	–
COc1cccc(CNc2nc3cc(-c4ccccc4C)sc3c(=O)n2C)c1OC	active: 14.6 µM	–
O=C(CCl)N(c1ccccc1)c1ccccc1	active: 2.06 µM	–
CC(=O)N1CCN(c2nc3ccc(Br)cc3s2)CC1	inconclusive [inhibitor, single point]	–
C=CCOC(=O)C1=C(C)NC(SCC(=O)N(CC)CC)=C(C#N)C1c1ccco1 (stereo not given)	inactive	–
Cn1c(=O)c2cc(C(=O)NCCCN3CCN(c4cccc(Cl)c4)CC3)sc2c2ccccc21	inconclusive [inhibitor, single point]	–
Cc1nn(-c2ccccc2)c(-n2cccc2)c1C(=O)NCCc1ccc(Cl)cc1	active: 20.6 µM	–
Nc1c(C(=O)N/N=C/c2ccc([N+](=O)[O-])cc2)sc2nnc(-c3ccccc3)c(-c3ccccc3)c12	inactive	–
CCOc1cc(N2CCOCC2)c(OCC)cc1NC(=O)c1ccc(C)s1	active: 9.2 µM	–
COc1cc(C(=O)Nc2nc3ccc(C)cc3s2)ccc1OCc1c(C)noc1C	active: 17.8 µM	–
COCOCCn1cc(CN2CCS(=O)(=O)N(Cc3ccc(-c4ccc(Cl)nc4)cc3)C(CC(C)C)C2=O)nn1 (stereo not given)	inconclusive [inhibitor, single point]	–
O=C(C1CCN(c2ncnc3c2nc2n3CCCCC2)CC1)N1CCCCC1	inactive	–
O=C(COc1ccc(Br)cc1Cl)Nc1ncn[nH]1	inactive	–
CC(C)Cn1c(=O)c2sccc2n2c(CCCC(=O)NCCc3ccc(Cl)cc3)nnc12	inconclusive [inhibitor, single point]	–
CCCCCC(O)(CCN1CCCCC1)c1ccccc1 (stereo not given)	inactive	–
CC(=O)Oc1ccc(-c2ccc(C(=O)Nc3cccc(S(=O)(=O)N4CCOCC4)c3)cc2)cc1	active: 23.1 µM	–
CCC(=O)c1c[nH]c(C(=O)NCCCn2ccnc2)c1	inactive	–
COc1ccccc1CNC(=O)C1=C(C)C(=O)OC12CCC(C)CC2 (stereo not given)	inconclusive [inhibitor, single point]	–
Cc1ccc(-c2nc(Nc3ccc(N4CCOCC4)cc3)c3ccccc3n2)cc1	inconclusive [inhibitor, single point]	–
CCc1ccc2[nH]c(O)c(N=Nc3nc(-c4ccccc4)cs3)c2c1	inconclusive [inhibitor, single point]	–

SMILES	Potency	activity change, negative = growth inhibition
O=C(NC(Nc1nc2ccc([N+](=O)[O-])cc2s1)(C(F)(F)F)C(F)(F)F)c1ccccc1Cl	active: 0.326 µM	–
CSc1ccccc1NC(=O)CN(C)C(=O)CNC(=O)c1ccc(Oc2ccccc2)cc1	inconclusive [inhibitor, single point]	–
CC(C)NC(=O)c1ccc(-n2c(-c3ccccc3)cc3c2CCCC3)cc1	inconclusive [inhibitor, single point]	–
Cc1ccc(Cl)cc1N1CCN(C(=O)c2ccc(CN3CCOCC3)cc2)CC1	inconclusive [inhibitor, single point]	–
COc1cccc(-c2nc(CS(=O)(=O)CC(=O)NCCC(C)C)c(C)o2)c1	–	inconclusive: -31.3% [inhibitor]
COc1cccc(OCC(=O)NNC(=O)C(=O)Nc2cccc(C)c2)c1	–	inconclusive: -32.8% [inhibitor]
Cn1c(=O)c2c(SCc3cccc(C(F)(F)F)c3)nc(-c3ccco3)nc2n(C)c1=O	inconclusive [inhibitor, single point]	–
O=S(=O)(N/N=C/c1ccccc1F)c1ccccc1	active: 18.4 µM	–
N#Cc1cccc(-c2nccc(NCc3ccccc3)n2)c1	inconclusive [inhibitor, single point]	–
CCc1ccc(NC(=O)CSc2nc(-c3ccccc3Cl)nc3c2Cc2c(CO)cnc(C)c2O3)cc1	inconclusive [inhibitor, single point]	–
CCOC(=O)CNC(=O)CSc1nc(-c2ccc(C)cc2)ns1	inactive	–
CCc1ccc2nc(N(Cc3cccnc3)C(C)=O)sc2c1	inconclusive [inhibitor, partial curve]	–
c1ccc(-c2nc(N3CCCCCC3)nc(-n3ccnc3)n2)cc1	inconclusive [inhibitor, single point]	–
COc1ccc(S(=O)(=O)N2CCCCCC2)cc1C(=O)N1CCN(c2ccccc2C)CC1	inconclusive [inhibitor, single point]	–
COc1ccc(-c2cc3ccc(OC)cc3cn2)cc1	inconclusive [inhibitor, single point]	–
CC(=O)N(c1ccc(Cl)cc1)C1SC(=O)N(c2ccccc2)C1=O (stereo not given)	inactive	–
CS(=O)(=O)N1N=C(c2ccco2)CC1c1ccc(Cl)cc1Cl (stereo not given)	inconclusive [inhibitor, single point]	–
O=C(CC(Nc1ccc(Cl)cc1Cl)C(=O)O)c1ccccc1 (stereo not given)	inconclusive [inhibitor, single point]	–
Cc1ccc(Cc2cnc(N3C(=N)SC(C)C3=O)s2)cc1 (stereo not given)	inconclusive [inhibitor, single point]	–
Cc1ccc(C(=O)N/N=C\c2ccc(-c3ccc(Cl)cc3)o2)cn1	inconclusive [inhibitor, single point]	–
CCCN(CC1CC1)C(=S)NC(=O)c1ccc(S(=O)(=O)N2CCOCC2)cc1	inconclusive [inhibitor, single point]	–
CCC(C)(C)NC(=O)C(c1cccc(OC)c1)N(C(=O)CNC(=O)c1cccs1)c1cccnc1 (stereo not given)	inactive	–
